Several values for one entry are separate records, joined by “and”; a condition that tells them apart may be missing. Identical values can stand only once. Inconclusive results, whose numbers are uncertain, are shown with a selection of clear calls. A potency beside an inconclusive call is a rough fit, not a confirmed value. A structure can be active in one record and inactive in another. Activity calls are given as the source filed them. Calls follow the shape of the dose curve; as a rule, active = well fitted curve in the direction sought with a large enough effect in the repeat runs; inconclusive = weak or mixed curves; inactive = no such curve, though single readings can be large; an effect the other way counts as inactive or inconclusive.
Target: Androgen receptor (Homo sapiens) (UniProt P10275)
Assay: qHTS assay to identify small molecule antagonists of the androgen receptor (AR) signaling pathway using the MDA cell line (AID 743042; also: nearly all actives have a fitted effect of over 55% in size)
Conditions: MDA-kb2 AR-luc, MMTV luciferase, R1881 antagonist, 16 h; series mostly up to 70.3 µM
How it was run: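 MDA-kb2 breast carcinoma cells carrying MMTV-luciferase (AR/GR responsive) were co-treated with compounds and the agonist R1881 for 16 h at 37C. Inhibition read as ONE-Glo luminescence; CellTiter-Fluor fluorescence measured in parallel for cytotoxicity.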
% is scaled to controls: 0 for no effect and ±100 for the full control effect; potency is read from the fitted curve at half-maximal effect; tags tell the direction and shape of the fitted curve.

UniProt P10275, sequence (P10275 whole entry, looked up): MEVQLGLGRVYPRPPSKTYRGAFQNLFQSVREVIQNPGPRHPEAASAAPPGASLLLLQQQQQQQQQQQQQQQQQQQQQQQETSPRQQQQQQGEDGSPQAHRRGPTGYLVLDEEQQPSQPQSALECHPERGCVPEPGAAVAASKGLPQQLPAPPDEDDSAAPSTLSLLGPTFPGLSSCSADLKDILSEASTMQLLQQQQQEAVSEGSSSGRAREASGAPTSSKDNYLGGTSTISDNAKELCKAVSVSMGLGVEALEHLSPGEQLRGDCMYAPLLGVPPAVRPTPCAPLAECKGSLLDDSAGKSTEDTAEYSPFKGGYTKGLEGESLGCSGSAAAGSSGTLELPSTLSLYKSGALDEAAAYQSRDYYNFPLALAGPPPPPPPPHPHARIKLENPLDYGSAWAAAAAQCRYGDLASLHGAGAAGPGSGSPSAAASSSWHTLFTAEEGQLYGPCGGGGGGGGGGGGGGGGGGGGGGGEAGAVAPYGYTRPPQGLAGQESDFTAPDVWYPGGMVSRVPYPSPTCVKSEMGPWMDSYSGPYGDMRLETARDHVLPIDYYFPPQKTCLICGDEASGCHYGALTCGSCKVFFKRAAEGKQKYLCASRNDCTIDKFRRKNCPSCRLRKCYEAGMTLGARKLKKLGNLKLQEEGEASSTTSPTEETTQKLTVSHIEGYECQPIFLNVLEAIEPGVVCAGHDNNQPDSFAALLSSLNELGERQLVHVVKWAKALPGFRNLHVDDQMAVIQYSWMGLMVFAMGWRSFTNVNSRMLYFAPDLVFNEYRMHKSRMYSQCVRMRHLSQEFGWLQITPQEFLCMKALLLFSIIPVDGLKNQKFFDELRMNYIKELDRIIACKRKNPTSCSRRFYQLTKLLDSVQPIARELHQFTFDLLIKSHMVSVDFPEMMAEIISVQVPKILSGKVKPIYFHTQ

SMILES | Potency
O=Cc1ccc(F)cc1 | inactive
CCCCN(CCCC)c1ccc(C(=O)c2ccccc2C(=O)O)c(O)c1 | inconclusive: 69.2 µM [inhibitor, partial curve, poor fit]
CCCCCCOC(=O)c1ccccc1O | inactive

Tested on: not listed separately
Assay: qHTS assay to identify small molecule antagonists of the thyroid receptor (TR) signaling pathway - cell viability counter screen (AID 743064); also: nearly all actives have a fitted effect of over 50% in size
Conditions: GH3.TRE-Luc viability, CellTiter-Fluor, 24 h; activity change, negative = cytotoxic: at 70.3 µM (top of the series) unless noted
How it was run: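 In-well cytotoxicity read by CellTiter-Fluor (30 min, 37 C) following 23.5 h exposure of GH3 cells bearing a TRE-luciferase sensor. Compounds were added alongside 1 nM (final) T3 to drive TR transactivation.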

SMILES | Potency | activity change, negative = cytotoxic
CCCCCCCCCCCCCC[n+]1ccccc1 | active: 6.86 µM | 
Nc1nc2ccc([N+](=O)[O-])cc2s1 | inconclusive: 51.4 µM [cytotoxic] | 
Cc1ccc(C(=O)c2cc(O)c(O)c([N+](=O)[O-])c2)cc1 | active: 61.1 µM | 
C1=CC2C3C=CC(C3)C2C1 (stereo not drawn) | inconclusive: 15.1 µM [rising, full curve, poor fit] | 
CC(C)CC(C)O (stereo not drawn) | inconclusive: 76.6 µM [rising, single point] | 
Cc1ccc(C(C)C)c(O)c1 | inconclusive: 16.8 µM [rising, partial curve, poor fit] | 
c1ccc2sc(SN3CCOCC3)nc2c1 | inactive | 
Nc1c2c(nc3ccccc13)CCCC2 | inconclusive: 68.6 µM [cytotoxic] | 
OC[C@H]1O[C@@H]2O[C@H]3[C@H](O)[C@@H](O)[C@@H](O[C@H]4[C@H](O)[C@@H](O)[C@@H](O[C@H]5[C@H](O)[C@@H](O)[C@@H](O[C@H]6[C@H](O)[C@@H](O)[C@@H](O[C@H]7[C@H](O)[C@@H](O)[C@@H](O[C@H]1[C@H](O)[C@H]2O)O[C@@H]7CO)O[C@@H]6CO)O[C@@H]5CO)O[C@@H]4CO)O[C@@H]3CO | inconclusive: 0.0596 µM [rising, full curve] | 
CC(CC=O)CCCC(C)(C)O (stereo not drawn) | inactive | 
CCOC(=O)C1OC1c1ccccc1 (stereo not drawn) | inconclusive: 35.1 µM [cytotoxic, partial curve] and inconclusive: 17.2 µM [cytotoxic, partial curve, poor fit] | 
CCCCN(CCCC)c1ccc(C(=O)c2ccccc2C(=O)O)c(O)c1 | active: 55 µM | 
NCCO | inconclusive: 6.86 µM | 
CN(C/C=C/C#CC(C)(C)C)Cc1cccc2ccccc12 | inconclusive: 33.5 µM [cytotoxic] | 
Cn1cnc([N+](=O)[O-])c1Sc1ncnc2nc[nH]c12 | inconclusive: 57.4 µM [cytotoxic] | 
C1C[C@@H]2[C@H]3CC[C@H](C3)[C@@H]2C1 | inactive | 
Nc1ccc(O)c(N)c1 | inconclusive: 60.7 µM [cytotoxic, partial curve, poor fit] and inconclusive: 77 µM [cytotoxic, single point] | 
CN1CCN(CCCN2c3ccccc3Sc3ccc(S(=O)(=O)N(C)C)cc32)CC1 | active: 14.3 µM | 
CCOc1ccc2[nH]cc(C(=O)NCc3ccccc3)c(=O)c2n1 |  | inconclusive: 21.6%
O=C(O)C1CCC(C(=O)O)CC1 (stereo not drawn) | inactive | 
